Measured values reported in PubChem BioAssay AID504832 (National Center for Advancing Translational Sciences (NCATS), 2011).
The campaign covered roughly 310,000 compounds. About 18,000 (5.8%) were called active. This list was built around the results that the source calls inconclusive (neither active nor inactive); the mix of calls is not that of the screen. Calls follow the shape of the dose curve; as a rule, active = well fitted inhibition curve with a large enough effect; inconclusive = small, poorly fitted or top-dose-only effect, or another doubt; inactive = no such curve, though single readings can be large or run the other way. No potency is given beside an inconclusive call; the fits are too rough.

Test: Primary qHTS for delayed death inhibitors of the malarial parasite plastid, 48 hour incubation
Conditions: P. falciparum luciferase growth in erythrocytes; series mostly up to 28.7 µM
Outline: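 Luciferase-expressing P. falciparum in infected erythrocytes (2% hematocrit, 0.1% parasitemia final) in RPMI 1640/0.5% Albumax were exposed to compound for 48 hours at 37 C, 5% CO2; growth read as luminescence.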
Potency is read from the fitted curve at half-maximal effect; tags tell the direction and shape of the fitted curve.

Compound	Potency
O=C(COc1ccccc1Cl)N1CCCC(N2CCN(c3ccc(F)cc3)CC2)C1 (centres undefined)	active: 11.7 µM
Cc1ccc(S(=O)(=O)NCCC(=O)Nc2ccc(C)cc2C(=O)c2ccccc2)cc1	inactive
COc1cc(CNC2CCCCCCC2)cc(Cl)c1OC	inconclusive [inhibitor, full curve, poor fit]
O=C(c1ccco1)N1CCN(c2ncnc3c2[nH]c2ccccc23)CC1	inconclusive [inhibitor, partial curve]
CCOC(=O)c1c(C)n(-c2ccc(F)cc2)c2ccc(O)cc12	active: 2.62 µM
Cc1cc(C(F)(F)F)nc(Nc2nc(C)c3ccccc3n2)n1	inactive
CCOCCCNC(=O)CCc1ccc(S(=O)(=O)Nc2ccc(C)cc2)cc1	inconclusive [inhibitor, full curve, poor fit]
COc1ccc(CCNCC(O)COc2ccc(OC)cc2C(C)(C)C)cc1 (centres undefined)	active: 2.33 µM
O=C(NCC(=O)N(Cc1cccs1)C(C(=O)NC1CCCCC1)c1ccncc1)c1ccco1 (centres undefined)	inconclusive [inhibitor, single point]
COc1ccc(-c2noc(N3CCC(C(=O)Nc4ccccc4Cl)CC3)n2)cc1	inactive
O=c1cc(-c2ccccc2)[nH]c2nc3ccccc3n12	inconclusive [inhibitor, single point]
CC(CSc1nnnn1-c1ccccc1)Cn1c(N2CCCC2)nc2c1c(=O)[nH]c(=O)n2C (centres undefined)	inconclusive [inhibitor, partial curve]
CCOC(=O)N1CCN(C(=O)CSc2nnc3[nH]c(=O)c(C)c(C)n23)CC1	active: 9.28 µM
COc1ccccc1C(OC(=O)c1cccs1)C(=O)NCc1ccco1 (centres undefined)	inconclusive [inhibitor, single point]
O=C(NCC(=O)N1CCCCCCC1)c1ccc(Br)o1	inactive
CCOC(=O)C1CCCN(C(=O)c2ccc3c(=O)n(Cc4ccccc4OC)c(=S)[nH]c3c2)C1 (centres undefined)	inconclusive [inhibitor, partial curve]
Cc1noc(C)c1CSCC(=O)Nc1cc(S(=O)(=O)N2CCOCC2)ccc1OC(C)C	inconclusive [inhibitor, partial curve]
COc1ccc(C)cc1NC(=O)c1nn(-c2ccccc2)cc1OC	inactive
CC1=NN(c2nc3ccccc3[nH]2)C(=O)C1Cc1ccccc1 (centres undefined)	active: 2.62 µM
COc1ccccc1Nc1c2c(nc3ccccc13)CCC2	active: 8.28 µM
COc1cccc(-c2c(C(=O)N/N=C(\C)c3ccc(Cl)s3)nnn2-c2nonc2N)c1	inconclusive [inhibitor, single point]
CCOC(=O)C1CCCN(C(=O)c2cc(CN3C(=O)c4ccccc4C3=O)ccc2OC)C1 (centres undefined)	inconclusive [inhibitor, single point]
CCOc1cc(/C=N/NC(=O)c2ccc(-c3csc(Nc4ccc(C)cc4)n3)cc2)ccc1OCC(=O)O	inconclusive [inhibitor, single point]
Cc1ccccc1-n1nc2c(c1NC(=O)c1ccc(Br)o1)CSC2	inconclusive [inhibitor, single point]
O=c1c(-c2nc3ccccc3s2)cccn1Cc1ccc(Cl)c(Cl)c1	inconclusive [inhibitor, partial curve, poor fit]
CCOc1ccccc1/C=N/Nc1ccccc1[N+](=O)[O-]	inactive
O=c1[nH]c(/C=C/c2ccc3c(c2)OCO3)c([N+](=O)[O-])c(=O)[nH]1	inconclusive [inhibitor, single point]

Compound	Potency
Cc1cccc(C(=O)NCCC(=O)Nc2ccc(C#N)cc2)c1	inactive
CCC(SC1=Nc2ccccc2C2=NC(CC(C)C)C(=O)N12)C(=O)Nc1ccc2c(c1)OCO2 (centres undefined)	inconclusive [inhibitor, single point]
CCCn1c(=O)c(C(=O)Nc2ccccc2C)c(O)c2ccccc21	inactive
O=C(c1cnc(-c2ccc(Cl)cc2)s1)c1ccc(Cl)cc1Cl	inactive
CC(C)(C)C1=NN(C(=O)c2ccccc2)C(O)(C(C)(C)C)C1 (centres undefined)	inactive
CCN(CC)c1nc2ccccc2n2cnnc12	inconclusive [inhibitor, partial curve, poor fit]
C#CCOCCOCCOCCNc1nc(N2CCN(C(=O)Cn3cc(CCCN=C(N)N)nn3)CC2)nc(N2CCN(C(=O)[C@H](CCCCN)n3cc(CCCC)nn3)CC2)n1	active: 11.7 µM
Oc1ccccc1N=Cc1ccc[nH]1	inconclusive [inhibitor, partial curve]
O=C1N=C(N2CCCC2)CN1c1ccccc1	inactive
CCOC(=O)N1CCN(C(=O)c2ccc3c(c2)NC(=O)/C(=C\c2cccc(C)c2)S3)CC1	inconclusive [inhibitor, single point]
C=CCOc1c(CNc2ccc(C(=O)O)cc2)cccc1OCC	inactive
O=S(=O)(N1CCCCC1)N1CCN(c2cc(Cl)ccc2Cl)CC1	inconclusive [inhibitor, single point]
CCOC(=O)C1(CCc2ccccc2)CCN(C(=O)CCc2cnccn2)CC1	inconclusive [inhibitor, single point]
Cc1ccc2nc(SCC(=O)Nc3nonc3C)[nH]c2c1	inactive
O=[N+]([O-])c1ccc(C=Nc2cccc3ccccc23)s1	inconclusive [inhibitor, partial curve]
COc1ccc(S(=O)(=O)NC(C)C(=O)Nc2ccccc2C(F)(F)F)cc1 (centres undefined)	inconclusive [inhibitor, full curve]
COc1ccc(-c2noc(CN(C)Cc3ccccc3)n2)c(OC)c1OC	inactive
Cc1ccc(-c2nn(Cc3ccccc3)cc2C(=O)NCC2CCCO2)cc1 (centres undefined)	inconclusive [inhibitor, single point]
Nc1c(C(O)(C(F)(F)F)C(F)(F)F)cc(C(O)(C(F)(F)F)C(F)(F)F)c2ccccc12	active: 9.28 µM
Cc1cc(C)cc(N(CC(=O)N2CCC(C)CC2)S(=O)(=O)c2ccccc2)c1	inconclusive [inhibitor, single point]
CC(C)CNC(=O)c1cccc(NC(=O)COc2ccc([N+](=O)[O-])cc2)c1	inconclusive [inhibitor, full curve, poor fit]
CCCC(C)C(=O)Nc1cc([N+](=O)[O-])ccc1Cl (centres undefined)	inactive
Cc1nc(-c2ccc(F)cc2)c(CC(=O)Nc2cc(S(=O)(=O)N3CCCCC3)ccc2C)s1	inconclusive [inhibitor, single point]
O=C(CSc1nc2cc(Cl)c(Cl)cc2[nH]1)c1ccc2c(c1)OCO2	active: 4.15 µM
Cc1cc2c(NC(=O)Nc3ccc(C(F)(F)F)cc3)cccc2nn1	active: 10.4 µM
O=C(CN1CCCC1c1ccc2c(c1)OCCO2)NC(=O)Nc1ccccc1 (centres undefined)	inconclusive [inhibitor, single point]
CC(=O)OCCNc1cc(Sc2nc3ccccc3[nH]2)c2nonc2c1[N+](=O)[O-]	inconclusive [inhibitor, single point]

Compound	Potency
CCn1c(=O)c2ccccc2n2c(SCC(N)=O)nnc12	inactive
Cc1nn(CC(=O)Nc2cccc(C(F)(F)F)c2)c(=O)c2cccn12	inactive
COc1cc(/C=C(/C#N)c2ccccc2)ccc1Oc1ccc([N+](=O)[O-])cn1	active: 4.65 µM
COc1ccc(C(=O)N/C(=C\c2ccc3c(c2)OCO3)C(=O)N2CCOCC2)cc1	inactive
Cc1ccc2c(CC(=O)OCc3nc(N)nc(Nc4ccccc4C)n3)coc2c1	inactive
O=C(C1=C[C@H](c2coc3ccccc3c2=O)C[C@H](OCc2ccc(CO)cc2)O1)N1CCN(Cc2ccccc2)CC1	inconclusive [inhibitor, full curve]
CC(=O)N1c2ccc(S(=O)(=O)N3CCCC(C(=O)N4CCC(C)CC4)C3)cc2CC1C (centres undefined)	inconclusive [inhibitor, single point]
Cc1cc(C(=O)NNc2c(Cl)cccc2Cl)n(C(C)(C)C)n1	inconclusive [inhibitor, full curve, poor fit]
O=C(c1ccc(-c2cc3ccccc3oc2=O)cc1)N1CCN(c2ccc(Cl)cc2[N+](=O)[O-])CC1	inconclusive [inhibitor, partial curve]
COC(=O)C(C(=O)OC)C(CC(=O)c1ccc(C)cc1)c1cc(OC)c(OC)c(OC)c1 (centres undefined)	inactive
CCn1cc(/C=N/NC(=O)c2ccc3c(c2)OCO3)cn1	inactive
CCOc1ccc(CCNC(=O)C2CCCN(S(=O)(=O)c3c(C)n[nH]c3C)C2)cc1OCC (centres undefined)	active: 8.28 µM
CN(CC(=O)Nc1cccc(F)c1)C(=O)c1ccc2c(c1)NC(=O)CS2	inconclusive [inhibitor, partial curve, poor fit]
COc1cc(CC(=O)Nc2cccc(C(F)(F)F)c2)cc(OC)c1OC	inconclusive [inhibitor, single point]
COc1ccc(Br)cc1CSC(=N)N	inconclusive [inhibitor, partial curve]
CCOC(=O)Nc1ccc2c(c1)N(C(=O)CN1CCN(C)CC1)c1ccccc1CC2	inconclusive [inhibitor, full curve, poor fit]
O=P(COc1ccccc1)(c1ccccc1)c1ccccc1	inconclusive [inhibitor, partial curve, poor fit]
CCOC(=O)c1c(C(C)(C)C)oc2ccc(O)cc12	inconclusive [inhibitor, single point]
CC(C)CN(CC(C)C)S(=O)(=O)c1cc([N+](=O)[O-])ccc1N1CCCCCC1	inconclusive [inhibitor, full curve, poor fit]
Cc1noc(-c2ccc(C(F)(F)F)cc2)c1NC(=O)Nc1ccc(Cl)cc1	active: 2.62 µM
C=C(C)c1cccc(C(C)(C)NC(=O)Nc2ccc(OC)nc2)c1	inconclusive [inhibitor, single point]
CCOC(=O)C(c1ccccc1)C(Nc1ccccc1)c1ccccn1 (centres undefined)	inconclusive [inhibitor, single point]
CC1(C#N)c2ccccc2C(Br)=CN1C(=O)c1ccccc1 (centres undefined)	active: 10.4 µM
CCOC(=O)[C@@H]1[C@H]2COc3ccccc3[C@H]2N2C(=O)N(c3ccccc3)C(=O)[C@]12C	inconclusive [inhibitor, partial curve, poor fit]
Cc1ccc(C)c(NC(=S)c2ccc3ccccc3n2)c1	inactive
